Test results from article PMC4336329 (PLoS ONE, 2015).
About 2,200 (0.71%) of roughly 310,000 compounds showed an effect of 50% or more. The effect is printed as a negative number. Some of the results follow.

What follows are molecules tested against human ether-à-go-go-related gene (hERG) potassium channel (human, UniProt Q12809) (assay: primary screen, population patch clamp on CHO cells stably expressing hERG).
human ether-à-go-go-related gene (hERG) potassium channel, sequence (Q12809 whole entry, looked up): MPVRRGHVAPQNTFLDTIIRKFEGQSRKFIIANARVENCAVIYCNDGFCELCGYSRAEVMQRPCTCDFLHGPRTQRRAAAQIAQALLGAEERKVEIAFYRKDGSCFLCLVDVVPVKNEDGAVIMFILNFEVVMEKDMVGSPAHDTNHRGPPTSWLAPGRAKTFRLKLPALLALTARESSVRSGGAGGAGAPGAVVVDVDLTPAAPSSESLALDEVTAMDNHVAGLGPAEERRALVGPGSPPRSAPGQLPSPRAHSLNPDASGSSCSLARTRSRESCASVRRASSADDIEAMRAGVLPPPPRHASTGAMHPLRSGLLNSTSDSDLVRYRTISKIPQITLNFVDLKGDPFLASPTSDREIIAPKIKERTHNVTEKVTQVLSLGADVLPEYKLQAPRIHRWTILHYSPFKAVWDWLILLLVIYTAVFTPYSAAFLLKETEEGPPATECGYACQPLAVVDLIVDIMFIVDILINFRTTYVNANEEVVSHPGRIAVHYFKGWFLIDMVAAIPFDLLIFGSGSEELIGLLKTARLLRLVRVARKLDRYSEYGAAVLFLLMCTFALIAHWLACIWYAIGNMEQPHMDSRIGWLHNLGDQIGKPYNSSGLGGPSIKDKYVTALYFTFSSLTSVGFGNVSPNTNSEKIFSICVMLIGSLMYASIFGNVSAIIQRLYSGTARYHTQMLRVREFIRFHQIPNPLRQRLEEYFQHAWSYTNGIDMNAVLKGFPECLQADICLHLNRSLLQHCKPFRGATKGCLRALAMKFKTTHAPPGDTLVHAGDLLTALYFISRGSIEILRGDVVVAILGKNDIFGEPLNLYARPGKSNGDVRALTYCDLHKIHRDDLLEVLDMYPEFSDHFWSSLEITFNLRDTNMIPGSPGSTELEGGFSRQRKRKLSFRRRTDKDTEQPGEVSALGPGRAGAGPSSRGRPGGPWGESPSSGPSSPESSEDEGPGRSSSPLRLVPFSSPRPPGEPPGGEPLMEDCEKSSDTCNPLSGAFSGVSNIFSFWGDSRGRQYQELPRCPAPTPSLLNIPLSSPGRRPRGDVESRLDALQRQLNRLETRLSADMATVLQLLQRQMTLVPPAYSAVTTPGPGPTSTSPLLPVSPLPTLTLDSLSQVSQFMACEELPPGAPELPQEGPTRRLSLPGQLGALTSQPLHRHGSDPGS

Row | Compound | hERG current change (%, negative = inhibition) at 1uM [%]
1 | Cc1oc2cc(O)ccc2c(=O)c1-c1nncn1-c1ccccc1 | 11.9
2 | CNC(=S)Nc1cc(C)ccc1OC(F)F | 9.12
3 | COc1ccc(OC)c(NC(=S)N2CCCC2)c1 | 10.4
4 | CNC(=O)Nc1ccccc1C(=O)Nc1ccccc1 | 4.58
5 | COc1ccc2[nH]cc(CCNC(=O)c3ccco3)c2c1 | 9.61
6 | Cc1cccc(NC(=S)NC(=O)Cc2ccccc2)c1C | 22
7 | CCC(C)NC(=O)C1CCC(CNS(=O)(=O)c2ccc3c(c2)N(C(C)=O)CCO3)CC1 (stereo not drawn) | 7.13
8 | COc1ccc2nc(NC(=O)C3CCCO3)sc2c1 (stereo not drawn) | 2.36
9 | Cl.O=C(NCCCN1CCOCC1)c1cc2c(s1)CCCC2 | -10.2
10 | Cc1ccccc1N1CC(C(=O)N2CC(C)OC(C)C2)CC1=O (stereo not drawn) | 3.75
11 | CCN(CC)S(=O)(=O)c1ccc(NCC2COc3ccccc3O2)c([N+](=O)[O-])c1 (stereo not drawn) | 5.29
12 | COc1ccc(C(=O)NC2=NCCS2)cc1 | 15.9
13 | COc1ccc(OC)c(-c2cc(-c3cccnc3)nc(N)c2C#N)c1 | 10.3
14 | Cc1sc2nc3c(SC(C)C(=O)O)cc(C(=O)c4ccccc4O)cn3c(=O)c2c1C (stereo not drawn) | 12.8
15 | Cc1ccc(NC(=O)CN2C(=O)NC3(CCCCC3C)C2=O)cc1S(=O)(=O)N1CCCCC1 (stereo not drawn) | -0.528
16 | CC(=O)c1ccc(N2CCN(C(=O)C3CCN(C(=O)Nc4ccccc4)CC3)CC2)cc1 | 12.2
17 | Cc1cccc(Nc2nc(-c3ccncc3)cs2)c1 | -2.6
18 | CCc1ccc(N2C(=O)CN(Cc3ccc(OC)c(OC)c3)C2=S)cc1 | 2.78
19 | CC(C)CCn1c(SCCc2ccccc2)nc2c1c(=O)[nH]c(=O)n2C | 10.3
20 | Cc1sc2nc(CSc3nnc(Cc4cccs4)n3C3CCCCC3)[nH]c(=O)c2c1C | 8.21

Row | Compound | hERG current change (%, negative = inhibition) at 1uM [%]
21 | Cc1cccn2c(=O)c3cc(C(=O)NCCC4=CCCCC4)n(C)c3nc12 | 19.3
22 | COc1ccc(-c2nnc(SC)nc2-c2ccc(OC)c([N+](=O)[O-])c2)cc1[N+](=O)[O-] | 9.65
23 | O=S(=O)(c1ccc(F)cc1)N1CCN(c2nc(-c3ccc(F)cc3)cs2)CC1 | 5.33
24 | CC(=O)Nc1nc2ccc(S(=O)(=O)N3CCCC3)cc2s1 | 0.909
25 | Cc1cc(/C=N/Nc2nc(N)ncc2[N+](=O)[O-])c(C)n1-c1ccccc1F | 19.1
26 | COc1cc(OC)c(S(=O)(=O)Nc2ccc(C)cn2)cc1NC(C)=O | 2.23
27 | CCc1ccc(NC(=O)NCCN2CCCCC2)cc1 | -19.9
28 | CCS(=O)(=O)N1CCN(c2ccc([N+](=O)[O-])c(NC(C)c3ccccc3)c2)CC1 (stereo not drawn) | -8.41
29 | CCOC(=O)C1=C(N)Oc2ccccc2C12C(=O)N(CC(=O)OC)C(CC(=O)OC)=C2C(=O)OC (stereo not drawn) | 9.82
30 | CCOC(=O)c1[nH]nc2c1C(=O)N(Cc1ccccc1)C2=O | 12.9
31 | COc1ccc(C)cc1NC(=O)Nn1cnnc1 | -5.18
32 | O=C(O)C1Nc2c(cccc2C(F)(F)F)C2C=CCC12 (stereo not drawn) | 13.2
33 | O=C1COc2ccc(C(=O)COC(=O)CCSc3ccc(Cl)cc3)cc2N1 | 16
34 | CCC1(C)Cc2c(C#N)c(N)n(N)c(=S)c2CO1 (stereo not drawn) | 12.9
35 | CC1(c2cnc(Nc3ccccc3)s2)CCC(=O)O1 (stereo not drawn) | 11.7
36 | Cc1ccc(-c2nnc(-c3ccc4c(c3)OCO4)o2)cc1 | 0.4
37 | CCc1ccc(NC(=O)C(=O)c2ccccc2NC(C)=O)cc1 | -4.93
38 | COCCCNc1oc(/C=C/c2ccccc2)nc1C#N | 6.06
39 | Cc1oc(-c2cccs2)nc1CN1CCC(CO)(CCOc2ccccc2)CC1 | -30
40 | COC(=O)c1ccccc1SCC(=O)Nc1ccc(N2CCOCC2)cc1 | 15

Row | Compound | hERG current change (%, negative = inhibition) at 1uM [%]
41 | COC(=O)c1sccc1NC(=O)c1ccc(OC)c(OC)c1 | 8.18
42 | Cc1cccc(N=C2NC(=O)/C(=C/C=C/c3ccco3)S2)c1 | 11
43 | N#CC(c1ccc(Cl)cc1)N1CCOCC1 (stereo not drawn) | 12.8
44 | CC1Nc2nc(N(C)C)[nH]c(=O)c2NC1C.Cl.O (stereo not drawn) | 11.4
45 | O=C(Nc1sc2c(c1C(=O)NCCO)CCCC2)c1ccco1 | -3.09
46 | O=C(COC(=O)CSc1ccc2ccccc2c1Br)NC1CC1 | 17.2
47 | O=C(COC(=O)c1cc(Cl)ccc1O)NC(=O)NCc1ccccc1 | 5.88
48 | CCn1ccnc1CN1CCCCC1C(=O)Nc1ccc(Oc2cccnc2)cc1 (stereo not drawn) | 4.5
49 | Cc1ccc(-c2cc(C(=O)NCc3ccc4c(c3)OCO4)no2)cc1 | 8.98
50 | CC(C)Oc1ccc(C(CC(=O)NCc2ccco2)c2ccccc2)cc1 (stereo not drawn) | 3.21
51 | Cc1[nH]c2ccc(Br)cc2c(=O)c1CN1CCOCC1 | -2.66
52 | Cc1ccc2oc(C(F)(F)C(F)F)cc(=O)c2c1 | 12.3
53 | COc1cc(/C=C/C2=NNC(=O)CC2)cc(OC)c1OC | 16.6
54 | O=C(NCc1nc(-c2ccc(Cl)cc2)no1)c1ccco1 | 4.88
55 | CC(C)c1nnc(NC(=O)C2CCCN2C(=O)Nc2ccccc2)s1 (stereo not drawn) | 14.7
56 | CC(C)Oc1ccc(-c2nc(NCC3CCCO3)c3ccccc3n2)cc1 (stereo not drawn) | 13.7
57 | CC(=O)NNc1ncnc2c1cnn2-c1ccc(C)cc1 | 7.69
58 | CCc1ccccc1OCc1nnc(N)s1 | 6.39
59 | O=C1c2ccccc2CN1c1ccccc1 | 14
60 | CCC1C(=O)C(CC)C(c2ccccc2)NC1c1ccccc1 (stereo not drawn) | 13.8
